The whole screen tested about 50,000 compounds, of which about 800 (1.6%) showed an effect of 50% or more. The list shows a part of the results.
molecular target: Bcl-2-like protein 10 (Homo sapiens) (UniProt Q9HD36); assay: Phenotype converters, Bcl-B/TR3 peptide binding displacement, primary biochemical FP (AID 1240); details: GST-Bcl-B / FITC-TR3 peptide fluorescence polarization; stronger effect = higher value; compound at 3.75 mg/L;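 further: 0% = Bcl-B with tracer peptide and DMSO and 100% = tracer peptide lacking Bcl-B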
UniProt Q9HD36, sequence (Q9HD36 whole entry, looked up): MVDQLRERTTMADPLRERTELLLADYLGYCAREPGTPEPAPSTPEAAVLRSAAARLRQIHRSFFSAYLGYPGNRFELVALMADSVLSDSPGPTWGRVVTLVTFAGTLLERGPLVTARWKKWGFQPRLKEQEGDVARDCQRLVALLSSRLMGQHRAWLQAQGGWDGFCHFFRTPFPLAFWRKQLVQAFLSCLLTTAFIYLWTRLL

| SMILES | displacement |
| --- | --- |
| FC(F)(F)c1cc(-c2ccccc2)nc2ncnn12 | -13.3% |
| CCOc1ccc(NC(=O)c2ccccc2NC(=O)c2ccc(C)cc2)cc1 | -1.3% |
| O=P(O)(Oc1ccc(Cl)cc1)Oc1ccccc1F | -8.1% |
| COc1cc(C2C(C#N)=C(N)Oc3c2[nH]c(=O)[nH]c3=O)cc(OC)c1OC (configuration not stated) | 5.2% |
| Cc1ccc(N2CCCCC2)c2c1C(=O)c1ccccc1C2=O | 1.1% |
| O=c1[nH]c(=O)n(-c2ccccc2Cl)c(O)c1C=Nc1cccc(Cl)c1 | -4% |
| COc1ccc(Cl)cc1NC(=O)c1ccc(CN(c2ccccc2)S(C)(=O)=O)cc1 | 8.4% |
| Cc1ccc(/C=C2\SC(=S)N(CCC(=O)Nc3cccc(C)c3)C2=O)cc1 | 0.5% |
| Cc1ccc[n+](CC(=O)c2ccc(-c3ccccc3)cc2)c1 | 14.4% |
| COc1ccc(NC(=O)C2=C(C)NC(=S)NC2c2ccc(OC)cc2)cc1 (configuration not stated) | 1.7% |
| COc1cccc(N2C(=O)NC(=O)/C(=C/c3ccc(OC)c4ccccc34)C2=O)c1 | -4.6% |
| COc1ccc(CNC(=O)CN(c2cc(C)cc(C)c2)S(C)(=O)=O)cc1 | -4.3% |
| Cc1c(Cl)cccc1-n1ncnc1-c1ccccc1Cl | -1.3% |
| COC(=O)c1cc(C(=O)Nc2nc3ccccc3s2)cc([N+](=O)[O-])c1 | 12.7% |
| Cc1ccc(C(=O)Nc2ccccc2C(=O)N2CCOCC2)cc1 | 2.4% |
| CCN1C(=O)/C(=C\c2ccc(-c3ccc([N+](=O)[O-])cc3)o2)SC1=S | -9.1% |
| Cc1ccc(S(=O)(=O)N2CCC(O)CC2C)cc1 (configuration not stated) | 10.6% |
| O=C(O)c1ccccc1N=Nc1cc(-c2ccccc2)oc1O | -49.9% |
| COc1ccc(N(CC(=O)NCc2ccccn2)S(=O)(=O)c2ccc(OC)c(OC)c2)cc1 | -15% |
| O=C(NC(c1ccccc1)c1ccccc1)C(=O)c1c[nH]c2ccccc12 | 10.3% |
| COc1ccc(C2/C(=C(\O)c3ccc(Cl)cc3)C(=O)C(=O)N2c2cccnc2)cc1 (configuration not stated) | 6.2% |
| COc1ccc(/C=C2\C(=O)NC(=O)N(c3ccccc3Cl)C2=O)cc1Br | 5.7% |
| CC(=O)c1cccc(NC(=O)COc2ccc(C)cc2C)c1 | 0% |
| Cc1ccc2nsnc2c1NC(=O)c1ccc(-c2ccc(Cl)cc2Cl)o1 | 41.5% |
| Cc1ccc(C(=O)N2CCN(Cc3ccccc3)CC2)cc1 | 10.2% |
| CCOc1ccc(N(CC(=O)NCc2ccc(Cl)cc2)S(C)(=O)=O)cc1 | -2.6% |

| SMILES | displacement |
| --- | --- |
| NC(=O)c1c(N)sc2c1CCCCCC2 | -1.2% |
| COCCCNC(=O)C(=O)Nc1ccc(Cl)cc1C | 8.5% |
| NC1=NC(=O)/C(=C/c2ccc(OC(=O)c3ccco3)cc2)S1 | 3.9% |
| CCOC(=O)C1=C(c2ccccc2)N=c2s/c(=C\c3cccc(O)c3)c(=O)n2C1c1cccc(OC)c1OC (configuration not stated) | 7.6% |
| CC1=C(C(=O)OCCOc2ccccc2)C(c2ccc([N+](=O)[O-])cc2)C2=C(CCCC2=O)N1 (configuration not stated) | -10.3% |
| Cc1cccc(OCC(=O)Nc2ccc(N(C)C)cc2)c1 | 12.1% |
| NC(=O)c1ccc(N=Cc2ccccc2[N+](=O)[O-])cc1 | -12.2% |
| CCCOC(=O)c1ccc(NC(=O)c2cc3ccccc3oc2=O)cc1 | 4.1% |
| O=C(COc1ccccc1F)Nc1nc(-c2cccs2)c(NC(=O)c2ccccc2)s1 | 14.6% |
| C/C(=C\C(=O)c1ccc(Cl)cc1)Nc1cc(Cl)cc(Cl)c1 | -5.9% |
| CCOC(=O)c1cccc(NC(=O)/C=C/c2ccccc2)c1 | 15.5% |
| C=CCOc1c(Cl)cc(/C=C2\C(=O)NN(c3ccc(Cl)c(Cl)c3)C2=O)cc1OC | 10.3% |
| O=[N+]([O-])c1ccc(NN=C2CCCCC2)c([N+](=O)[O-])c1 | 13% |
| O=C(Nc1ccccc1C(=O)Nc1ccccc1Cl)c1ccccc1Cl | 1.4% |
| Cc1oc2c(CN3CC4(C)CC3CC(C)(C)C4)c(O)ccc2c(=O)c1-c1nc2ccccc2s1 (configuration not stated) | 11.2% |
| COc1ccc(CC(c2nc3ccccc3[nH]2)C(C)c2nc3ccccc3[nH]2)cc1 (configuration not stated) | 8% |
| O=C1NC(=O)C(=Cc2ccc(Cl)c([N+](=O)[O-])c2)C(=O)N1 | -18.5% |
| COc1ccc(/C=N/N2C(=O)CSC2=S)cc1 | 31.4% |
| O=C(Nc1cccc(-c2nc3ccccc3[nH]2)c1)c1ccccc1Cl | -3.8% |
| CCOC(=O)C1=C(N)Oc2cc(O)ccc2C1c1ccccc1 (configuration not stated) | -8.2% |
| C(=C\CSc1nc2ccccc2[nH]1)/CSc1nc2ccccc2[nH]1 | 1.8% |
| COc1ccc(N2C(=O)CCC([N+](=O)[O-])=C2C)cc1 | -4.2% |
| C/C(CN1C(=O)c2ccccc2C1=O)=N\NC(=O)c1cccc(Cl)c1 | -4.6% |
| O=C(O)/C=C(/c1ccccc1)C(F)(F)F | 2.6% |
| O=C(Nc1ccc(F)c(Cl)c1)c1ccncc1 | 7.1% |
| Cc1cc(Cl)cc(Cl)c1OCCCCN1CCCCC1 | 6.3% |
